In the supplement of paper PMC12217912:
The list shows a part of the results. The full chains were built here from the parent and the listed change. Inactive controls read about 0.05.

B1: TEV protease; numbered along this chain (parent)
chain: MGESLFKGPRDYNPISSSICHLTNESDGHTTSLYGIGFGPFIITNKHLFRRNNGTLVVQSLHGVFKVKDTTTLQQHLVDGRDMIIIRMPKDFPPFPQKLKFREPQREERICLVTTNFQTKSMSSMVSDTSCTFPSGDGIFWKHWIQTKDGQCGSPLVSTRDGFIVGIHSASNFTNTNNYFTSVPKNFMELLTNQEAQQWVSGWRLNADSVLWGGHKVFMVKPEEPFQPVKEATQL

Variants of: B1
Assay: raw area under fraction-flipped curve 0-4 h after induction (AUC4h, not background-subtracted), DNA-recorder readout of cleavage of the substrate (dimensionless); higher = more cleavage of the substrate by the protease variant
Conditions: temperature: 34 °C; time window: 0-4 h after rhamnose induction
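Note: Bxb1 expression induced with 0.2% (w/v) L-rhamnose at OD600 near 0.5, cultures sampled hourly, flipped fraction per protease–substrate barcode pair counted by paired-end Illumina sequencing.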

| Variant | area with substrate ECLYFQS | area with substrate EGLYFQS | area with substrate EILYFQS | area with substrate EKLYFQS | area with substrate EPLYFQS | area with substrate EVLYFQS | area with substrate EYLYFQS | area with substrate EDLYFQS | area with substrate EQLYFQS | area with substrate ERLYFQS |
| --- | --- | --- | --- | --- | --- | --- | --- | --- | --- | --- |
| A170L | 0.0574 | 0.0686 | 0.0662 | 0.0624 | 0.0825 | 0.0494 | 0.0582 | – | – | – |
| A170P | 0.0463 | – | – | – | – | – | – | 0.0554 | 0.0553 | 0.0778 |
| A170D | – | – | 0.0456 | – | – | 0.0633 | – | 0.0663 | – | 0.085 |
| V217M | – | – | 0.0786 | 0.0753 | – | 0.0931 | 0.065 | 0.112 | 0.0856 | 0.0889 |
| T55P | – | – | 0.0859 | – | 0.0873 | 0.0793 | – | – | 0.0921 | 0.0857 |
| K185R | 0.0975 | – | – | – | – | – | – | – | 0.102 | – |
| L205P | – | – | – | 0.0541 | – | – | – | 0.0818 | 0.0661 | 0.0719 |
| V78H | – | – | – | – | 0.0388 | 0.0593 | – | – | 0.0518 | – |
| F117Y | – | – | – | 0.129 | – | 0.0857 | – | – | 0.123 | 0.0973 |
| F117T | – | 0.118 | – | – | 0.0838 | – | – | – | – | – |
| E195W | 0.0732 | 0.0647 | – | – | – | 0.0665 | 0.1 | – | – | 0.0938 |
| K216E | 0.0828 | – | 0.0713 | – | – | – | – | – | – | – |
| R106C | – | 0.0737 | 0.0983 | – | – | 0.107 | 0.119 | 0.102 | 0.118 | – |
| W199K | 0.0701 | – | 0.0761 | – | – | – | – | – | – | 0.0628 |
| W199A | 0.0575 | – | 0.0681 | – | 0.0726 | – | – | – | – | 0.0435 |
| I85Q | – | 0.0556 | 0.0648 | 0.0607 | – | 0.0604 | 0.0407 | – | 0.0503 | 0.0534 |
| N178P | 0.0552 | – | – | 0.0618 | – | – | – | – | 0.0652 | – |
| W212Y | 0.089 | – | 0.0991 | 0.119 | 0.156 | 0.0758 | 0.174 | – | – | – |
| F173P | 0.0851 | – | 0.0776 | 0.0766 | – | 0.0935 | 0.0907 | – | – | – |
| T233I | – | 0.0884 | – | – | 0.0903 | 0.0906 | – | 0.112 | – | 0.106 |
| T233V | 0.0876 | – | – | – | – | 0.0849 | – | 0.0963 | 0.124 | 0.0945 |
| H215T | 0.0551 | – | 0.0662 | – | – | 0.0618 | 0.0924 | 0.111 | – | – |

Same assay, conditions: temperature: 34 °C; time window: 0-4 h after rhamnose induction

| Variant | area with substrate ESLYFQS | area with substrate EMLYFQS | area with substrate EELYFQS | area with substrate ELLYFQS | area with substrate ETLYFQS | area with substrate EHLYFQS | area with substrate EWLYFQS | area with substrate EFLYFQS |
| --- | --- | --- | --- | --- | --- | --- | --- | --- |
| A170P | 0.0456 | – | – | – | – | – | – | – |
| A170D | – | 0.0559 | – | – | – | – | – | – |
| V217M | 0.0531 | 0.0714 | 0.0911 | 0.0767 | 0.0864 | – | – | – |
| T55P | 0.0814 | 0.104 | 0.101 | 0.0828 | – | 0.0775 | 0.0853 | – |
| K185R | 0.114 | 0.13 | – | – | – | – | 0.0989 | – |
| L205P | – | 0.0647 | 0.0666 | 0.0593 | – | – | – | – |
| V78H | 0.0734 | – | 0.0849 | – | 0.0695 | 0.0113 | 0.0823 | – |
| F117Y | – | 0.149 | 0.147 | 0.0673 | – | – | – | 0.111 |
| F117T | – | – | 0.0943 | 0.0884 | – | – | – | – |
| E195W | – | – | – | – | – | 0.0996 | – | – |
| R106C | 0.0871 | 0.119 | 0.0849 | – | – | 0.108 | – | 0.106 |
| W199K | 0.0705 | 0.0649 | 0.0617 | – | – | – | 0.0617 | – |
| W199A | 0.0717 | 0.0776 | – | 0.0631 | 0.0368 | – | – | – |
| I85Q | 0.0567 | 0.0452 | 0.0524 | – | – | 0.0484 | – | – |
| N178P | 0.052 | – | 0.0555 | 0.051 | – | – | – | – |
| W212Y | 0.0962 | 0.136 | – | – | – | – | – | – |
| F173P | 0.0874 | – | 0.12 | – | 0.0866 | 0.085 | – | – |
| T233I | 0.113 | – | – | – | – | 0.112 | 0.0912 | – |
| T233V | 0.0957 | – | – | 0.0926 | – | – | 0.11 | – |
| H215T | – | – | – | – | – | – | 0.0643 | – |
